Patent publication US20070254863A1 (priority 2006, published 2007)
pKi: −log10 of the molar value. Like-named read-outs stand apart in the source and are kept apart here.

Target: human cannabinoid CB1 receptor (Homo sapiens, UniProt P21554)
Assay: biochemical
Format: binding
Conditions: for Ki: cloned human CB1 receptor expressed in CHO cells, read-out: Affinity to CB1 (converted); for pKi: Affinity to CB1

Sequence of UniProt P21554 (P21554 whole entry): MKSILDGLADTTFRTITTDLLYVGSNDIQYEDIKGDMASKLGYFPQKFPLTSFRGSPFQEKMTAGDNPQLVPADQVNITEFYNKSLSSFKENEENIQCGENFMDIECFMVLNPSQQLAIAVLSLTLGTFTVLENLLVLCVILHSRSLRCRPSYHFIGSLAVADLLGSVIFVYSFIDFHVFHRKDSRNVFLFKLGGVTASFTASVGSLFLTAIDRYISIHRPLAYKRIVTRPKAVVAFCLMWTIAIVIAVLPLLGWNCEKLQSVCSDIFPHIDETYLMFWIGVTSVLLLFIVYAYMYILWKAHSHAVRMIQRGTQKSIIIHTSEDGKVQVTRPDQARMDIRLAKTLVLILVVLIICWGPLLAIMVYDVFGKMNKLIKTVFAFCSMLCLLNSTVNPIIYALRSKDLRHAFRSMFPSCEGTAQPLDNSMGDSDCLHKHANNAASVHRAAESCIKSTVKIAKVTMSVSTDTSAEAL

Row | SMILES | Ki [nM] | pKi
1 | Cn1c(C(=O)NN2CCCCC2)nc(-c2cc(Cl)ccc2Cl)c1-c1ccc(Cl)cc1 [5-(4-Chloro-phenyl)-4-(2,5-dichloro-phenyl)-1-methyl 1H-imidazole-2-carboxylic acid piperidin-1-ylamide] | 200 | 
2 | CN1CCCCC1Cn1cc(C(=O)c2cc([N+](=O)[O-])ccc2I)c2ccccc21 (stereo not shown) [AM-1241, (2-Iodo-5-nitro-phenyl)-[1-(1-methyl-piperidin-2-ylmethyl)-1H-indol-3-yl]-methanone, reference compound] |  | 6.60
3 | CN/C(=N\S(=O)(=O)N1CCCCCC1)N1CC(c2ccccc2)C(c2ccc(Cl)cc2)=N1 (stereo not shown) [Azepane-1-sulfonic acid [3-(4-chloro-phenyl)-4-phenyl-4,5-dihydro-pyrazol-1-yl]-methylamino-methyleneamide] | 50.1 | 
4 | CCCCCCC(C)(C)c1cc(O)c2c(c1)OC(C)(C)[C@@H]1CC=C(CO)CC21 (stereo partly shown) [HU-210, 3-(1,1-Dimethyl-heptyl)-9-hydroxymethyl-6,6-dimethyl-6a,7,10,10a-tetra hydro-6H-enzo[c]chromen-1-ol, reference compound] |  | 7.30
5 | CNC(=NS(=O)(=O)N1CCOCC1)C1=NN(c2ccc(Cl)cc2Cl)C(c2ccccc2)C1 (stereo not shown) [Morpholine-4-sulfonic acid [1-(2,4-dichloro-phenyl)-5-phenyl-4,5-dihydro-1H-pyrazol-3-yl]-methylamino-methyleneamide] | 126 | 
6 | CCN(CC)S(=O)(=O)N=C(NC)N1CC(O)(c2ccccc2)C(c2ccc(Cl)cc2)=N1 (stereo not shown) [N,N-Diethylamino-1-sulfonic acid [3-(4-chloro-phenyl)-4-hydroxy-4-phenyl-4,5-dihydro-pyrazol-1-yl]-methylamino-methyleneamide] | 39.8 | 
7 | CCN(CC)S(=O)(=O)N=C(SC)N1CC(c2ccccc2)C(c2ccc(Cl)cc2)=N1 (stereo not shown) [N,N-Diethylamino-1-sulfonic acid [3-(4-chloro-phenyl)-4-phenyl-4,5-dihydro-pyrazol-1-yl]-methylsulfanyl-methyleneamide] | 79.4 | 
8 | CN(C)S(=O)(=O)N=C(NCCF)N1CC(c2ccccc2)C(c2ccc(Cl)cc2)=N1 (stereo not shown) [N,N-Dimethylamino-1-sulfonic acid [3-(4-chloro-phenyl)-4-phenyl-4,5-dihydro-pyrazol-1-yl]-(2-fluoro-ethylamino)-methyleneamide] | 31.6 | 
9 | CN/C(=N\S(=O)(=O)c1ccc(C(F)(F)F)cc1)N1CC(c2cccnc2)C(c2ccc(Cl)cc2)=N1 (stereo not shown) [N-([3-(4-Chloro-phenyl)-4-pyridin-3-yl-4,5-dihydro-pyrazol-1-yl]-methylamino-methylene}-4-trifluoromethyl-benzenesulfonamide] | 6.31 | 
10 | Cc1c(NC(=O)c2ccccc2)nc(-c2ccc(Cl)cc2Cl)n1-c1ccc(Cl)cc1 [N-[1-(4-Chloro-phenyl)-2-(2,4-dichloro-phenyl)-5-methyl-1H-imidazol-4-yl]-benzamide] | 100 | 
11 | NC(=NS(=O)(=O)c1ccc(Cl)cc1)N1CC(c2ccccc2)C(c2ccc(Cl)cc2)=N1 (stereo not shown) [N-{Amino-[3-(4-chloro-phenyl)-4-phenyl-4,5-dihydro-pyrazol-1-yl]-methylene}-4-chloro-benzenesulfonamide] | 39.8 | 
12 | CN/C(=N\S(=O)(=O)N(C)C)N1CC(c2cccc(F)c2)C(c2ccc(Cl)cc2)=N1 (stereo not shown) [N-{[3-(4-Chloro-phenyl)-4-(3-fluoro-phenyl)-4,5-dihydro-pyrazol-1-yl]-methylamino-methylene}-N,N-dimethyl-sulfonamide] | 3.16 | 
13 | CNC(=NS(=O)(=O)c1ccc(C(F)(F)F)cc1)N1CC(c2ccccc2)C(c2ccc(Cl)cc2)=N1 (stereo not shown) [N-{[3-(4-Chloro-phenyl)-4-phenyl-4,5-dihydro-pyrazol-1-yl]-methylamino-methylene}-4-trifluoromethyl-benzene-sulfonamide] | 3.98 | 
14 | CCCCC/C=C\C/C=C\C/C=C\C/C=C\CCCCOC(CO)CO [Noladineether, reference compound] |  | 6.90
15 | Cc1c(NC(=O)N2CCCCC2)nn(-c2ccc(Cl)cc2Cl)c1-c1ccc(Cl)cc1 [Piperidine-1-carboxylic acid [5-(4-chloro-phenyl)-1-(2,4-dichloro-phenyl)-4-methyl-1H-pyrazol-3-yl]-amide] | 126 | 
16 | CNC(=NS(=O)(=O)N1CCCCC1)C1=NN(c2ccc(Cl)cc2)C(c2ccccc2)C1 (stereo not shown) [Piperidine-1-sulfonic acid [1-(4-chloro-phenyl)-5-phenyl-4,5-dihydro-1H-pyrazol-3-yl]-methylamino-methyleneamide] | 50.1 | 
17 | CNC(=NS(=O)(=O)N1CCCCC1)N1CC(c2cccc(F)c2)C(c2ccc(Cl)cc2)=N1 (stereo not shown) [Piperidine-1-sulfonic acid [3-(4-chloro-phenyl)-4-(3-fluoro-phenyl)-4,5-dihydro-pyrazol-1-yl]-methylamino-methyleneamide] | 31.6 | 
18 | CN(C)CCNC(=NS(=O)(=O)N1CCCCC1)N1CC(c2ccccc2)C(c2ccc(Cl)cc2)=N1 (stereo not shown) [Piperidine-1-sulfonic acid [3-(4-chloro-phenyl)-4-phenyl-4,5-dihydro-pyrazol-1-yl]-(2-dimethylamino-ethylamino)-methyleneamide] | 2.51 | 
19 | CNC(=NS(=O)(=O)N1CCCCC1)N1C[C@H](c2ccccc2)C(c2ccc(Cl)cc2)=N1 [Piperidine-1-sulfonic acid [3-(4-chloro-phenyl)-4-phenyl-4,5-dihydro-pyrazol-1-yl]-methylamino-methyleneamide] |  | 8.10
20 | CCc1c(C(=O)NN2CCCCC2)nn(-c2ccc(Cl)cc2Cl)c1-c1ccc(Br)cc1 [SR-147778, 5-(4-Bromo-phenyl)-1-(2,4-dichloro-phenyl)-4-ethyl-1H-pyrazole-3-carboxylic acid piperidin-1-ylamide, reference compound] | 12.6 | 
21 | O=S(=O)(N=C(NCCF)N1CC(c2ccccc2)C(c2ccc(Cl)cc2)=N1)c1ccc(Cl)cc1 (stereo not shown) [drawing 45, 4-Chloro-N-[[3-(4-chloro-phenyl)-4-phenyl-4,5-dihydro-pyrazol-1-yl]-(2-fluoro-ethylamino)-methylene]-benzenesulfonamide] | 20 | 
22 | O=S(=O)(N=C(NCCF)N1CC(c2ccccc2)C(c2ccc(Cl)cc2)=N1)c1ccc(Cl)cc1 (stereo not shown) [drawing 46] | 126 | 
